Laboratory results from patent publication US20240262922A1 (Merck KGaA, published 2024).

T1: recombinant human CD86 (Novoprotein #C404) (human, UniProt P42081 24-247)
T1 construct: Bought soluble protein; also called B7.2
T1 sequence: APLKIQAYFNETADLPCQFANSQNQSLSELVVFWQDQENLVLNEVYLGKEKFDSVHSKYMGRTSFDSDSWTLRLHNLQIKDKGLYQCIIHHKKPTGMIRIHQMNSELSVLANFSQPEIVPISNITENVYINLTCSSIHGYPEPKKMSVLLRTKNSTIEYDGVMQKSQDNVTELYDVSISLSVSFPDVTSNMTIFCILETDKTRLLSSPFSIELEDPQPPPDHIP

T2: recombinant human OX40L protein (R&D Systems, cat. #1054-OX) (human, UniProt P23510 51-183)
T2 construct: Bought soluble recombinant protein; also called rhOX40L; recombinant soluble OX40L
T2 sequence: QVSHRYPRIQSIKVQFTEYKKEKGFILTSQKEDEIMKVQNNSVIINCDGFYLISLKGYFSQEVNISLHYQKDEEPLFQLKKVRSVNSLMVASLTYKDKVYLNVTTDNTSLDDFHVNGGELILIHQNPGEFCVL

T3: AVI-GST-His6-hOX40L (human, UniProt P23510 51-183)
T3 sequence: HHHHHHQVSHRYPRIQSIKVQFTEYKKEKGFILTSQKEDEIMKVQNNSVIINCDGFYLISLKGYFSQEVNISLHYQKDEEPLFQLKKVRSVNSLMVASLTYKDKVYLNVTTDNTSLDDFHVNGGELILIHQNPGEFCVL

T4: recombinant cynomolgus monkey CD80 (Novoprotein cat. #CP54) (cynomolgus monkey, UniProt A0A2K5V5I3 35-242)
T4 construct: also called cynomolgus CD80
T4 sequence: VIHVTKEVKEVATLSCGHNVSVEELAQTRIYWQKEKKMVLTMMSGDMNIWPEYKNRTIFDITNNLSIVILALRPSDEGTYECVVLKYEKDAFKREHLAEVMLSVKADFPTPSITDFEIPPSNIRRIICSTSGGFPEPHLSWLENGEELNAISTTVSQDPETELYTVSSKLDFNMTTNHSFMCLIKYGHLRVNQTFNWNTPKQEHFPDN

T5: recombinant cynomolgus monkey OX40L (Novoprotein cat. #CP72) (cynomolgus monkey, UniProt P23510 51-183 (human entry), limits assumed)
T5 construct: Bought protein; also called cynomolgus OX40L
T5 chain: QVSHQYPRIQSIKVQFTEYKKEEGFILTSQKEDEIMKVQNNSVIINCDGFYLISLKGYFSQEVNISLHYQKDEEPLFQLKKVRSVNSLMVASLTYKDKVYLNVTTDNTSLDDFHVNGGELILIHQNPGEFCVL

T6: full-length human OX40L on the cell surface (human, UniProt P23510 1-183)
T6 construct: also called CHO-S-huOX40L; OX40L on MDDCs
T6 sequence: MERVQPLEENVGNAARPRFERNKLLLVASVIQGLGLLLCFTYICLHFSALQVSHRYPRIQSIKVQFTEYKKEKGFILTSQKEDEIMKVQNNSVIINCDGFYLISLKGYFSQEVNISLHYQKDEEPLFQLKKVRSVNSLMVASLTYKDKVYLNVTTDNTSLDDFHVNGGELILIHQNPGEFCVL

T7: recombinant human CD80 (Novoprotein cat. #CK61) (human, UniProt P33681 35-242)
T7 construct: Bought soluble protein; also called B7.1
T7 sequence: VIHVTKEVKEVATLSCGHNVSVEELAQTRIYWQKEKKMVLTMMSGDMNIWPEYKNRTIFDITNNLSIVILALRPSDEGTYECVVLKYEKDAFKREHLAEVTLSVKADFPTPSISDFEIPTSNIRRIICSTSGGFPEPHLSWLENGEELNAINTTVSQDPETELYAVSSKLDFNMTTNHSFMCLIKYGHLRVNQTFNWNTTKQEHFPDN

T8: recombinant cynomolgus monkey CD86 (Novoprotein cat. #CP41) (cynomolgus monkey, UniProt A0A2K5TTJ8 18-241)
T8 construct: also called cynomolgus CD86
T8 sequence: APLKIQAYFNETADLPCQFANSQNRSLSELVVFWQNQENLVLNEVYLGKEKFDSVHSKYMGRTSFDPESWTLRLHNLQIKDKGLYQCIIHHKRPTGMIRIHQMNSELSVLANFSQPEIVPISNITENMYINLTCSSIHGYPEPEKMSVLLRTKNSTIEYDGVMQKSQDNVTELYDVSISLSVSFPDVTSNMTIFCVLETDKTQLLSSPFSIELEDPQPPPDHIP


Experiments:
[1] = biological target: T1, recombinant human CD86 (Novoprotein …); assay: SPR steady state, Biacore T200; binder captured by anti-human IgG Fc, CD86 in solution; second number of the cell: human CD86
From the text: (§1) Goat anti-human IgG Fc (Jackson ImmunoResearch Goat anti-human IgG Fc Antibody, cat. #109-005-098), immobilized onto Biacore CM5 sensor chips, was used to capture experimental CTLA4_anti-OX40L fusion proteins or CTLA4-Ig reference proteins via their Fc regions. Recombinant CD80 proteins (human CD80, Novoprotein cat. #CK61; cynomolgus monkey CD80, Novoprotein cat. #CP54) and CD86 proteins (human CD86, Novoprotein . . . #C404) were bound to this surface at a range of concentrations. The response at steady state was measured with a Biacore T200 instrument (GE Healthcare) and plotted against the concentration of antibody and fit to a 1:1 binding model. The steady state KD was determined as the antibody concentration at a response equal to half the maximal response (Rₘₐₓ).
(§2) Binding affinity to human and cynomolgus CD80 and CD86 was determined for CTLA4_anti OX40L fusion proteins and reference CTLA4-Ig proteins using steady state affinity assays as described in section 1.1.8 of Example 1.

[2] = biological target: T2, recombinant human OX40L protein (R&D …); assay: SPR steady state affinity to human OX40L; second of two numbers in the cell
Experimental: (§3) Recombinant OX40L proteins (human OX40L protein, R&D systems, cat. #1054-OX; cynomolgus monkey OX40L, Novoprotein cat. #CP72) were immobilized onto Biacore CM5 sensor chips and anti-OX40L antibodies were bound to this surface at a range of concentrations. The response at steady state was measured with a Biacore T200 instrument (GE Healthcare) and plotted against the concentration of antibody and fit to a 1:1 binding model. The steady state KD was determined as the antibody concentration at a response equal to half the maximal response (Rₘₐₓ).

AVI-GST-His6-hOX40L = biological target: T3, AVI-GST-His6-hOX40L; assay: cell-based or functional assay
[3] = biological target: T2, recombinant human OX40L protein (R&D …); assay: cell-based or functional assay
[4] = biological target: T4, recombinant cynomolgus monkey CD80 …; assay: SPR steady state, Biacore T200; binder captured by anti-human IgG Fc, CD80 in solution
From the text: as §1, §2

[5] = biological target: T5, recombinant cynomolgus monkey OX40L …; assay: summary of flow cytometry, SPR and BLI
[6] = biological target: T2, recombinant human OX40L protein (R&D …); assay: SPR steady state, Biacore T200; OX40L immobilised on CM5, fusion protein in solution
Experimental: as §3

[7] = biological target: T6, full-length human OX40L on the cell …; assay: cellular binding to human OX40L (flow cytometry; cells not given)
[8] = biological target: T7, recombinant human CD80 (Novoprotein …); assay: SPR steady state, Biacore T200; binder captured by anti-human IgG Fc, CD80 in solution; first number of the cell: human CD80
From the text: as §1

[9] = biological target: T8, recombinant cynomolgus monkey CD86 …; assay: BLI steady state, Octet RED96; binder captured on AHC biosensors, cynomolgus CD86 in solution
Experimental: Cynomolgus monkey CD86 (Novoprotein cat. #CP41) steady-state affinity was measured with an Octet RED96 instrument (ForteBio) in a BLI assay. The Fc region of experimental CTLA4_anti-OX40L fusion proteins or of CTLA4-Ig reference protein was captured using anti-human IgG Fc Capture (AHC) Biosensors (ForteBio, cat. #18-5060). Recombinant cynomolgus monkey CD86 was bound to this surface at a range of concentrations. The response at steady state was plotted against the concentration of recombinant protein and fit to a 1:1 binding model. The steady state KD was determined as the recombinant protein concentration at a response equal to half the maximal response (Rₘₐₓ).
as §2

[10] = biological target: T6, full-length human OX40L on the cell …; assay: cellular binding to human OX40L (flow cytometry)
[11] = biological target: T2, recombinant human OX40L protein (R&D …); assay: SPR steady state affinity to human OX40L
Experimental: as §3

| Kd [1] [nM] | Kd [2] [nM] | OX40L neutralization/OX40-HEK Reporter IC50 (AVI-GST-His6-hOX40L) [nM] | Primary T cell activation assay IC50 [3] [nM] | Kd [4] [nM] | binding result [5] | Kd [6] [nM] | EC50 [7] [nM] | Kd [8] [nM] | Kd [9] [nM] | binding result [10] | binding result [11] | Binder |
| --- | --- | --- | --- | --- | --- | --- | --- | --- | --- | --- | --- | --- |
| 654 | 53.1 | 6.4 | 5.4 | 474 | binds | 71.4 | 4.1 | 540 | 750 | – | – | CTLA4_anti OX40L fusion protein 89B09 (Fc fusion, also called 89B09(1); 89B09 (1)) heavy: [sequence of about 120 residues not given]EPKSSDKTHTCPPCPAPPVAGPSVFLFPPKPKDTLMISRTPEVTCVVVDVSHEDPEVKFNWYVDGVEVHNAKTKPREEQYNSTYRVVSVLTVLHQDWLNGKEYKCAVSNKALPSSIEKTISKAKGQPREPQVYTLPPSREEMTKNQVSLTCLVKGFYPSDIAVEWESNGQPENNYKTTPPVLDSDGSFFLYSKLTVDKSRWQQGNVFSCSVMHEALHNHYTQKSLSLSPGAGGGGSGGGGSGGGGSEVQLVESGPGLVKPSETLSLTCTVSGVSIRSNGYYWGWIRQSPGKGLEWIGNMDYSGTYQNPSLTSRVTISGDASKNQFSLKLRSVTAADTAVYFCARERSNNWYPIDYWGQGTLVTVSSASTKGPSVFPLAPSSKSTSGGTAALGCLVKDYFPEPVTVSWNSGALTSGVHTFPAVLQSSGLYSLSSVVTVPSSSLGTQTYICNVNHKPSNTKVDKRVEPKSC light: SSELTQDPAVSVALGQTVRITCQGDSVRRFFAHWYQQKPGQAPILVISGKDTRPSGIPDRFSGSISGNTASLTITGAQAEDEADYYCNSRDSSGYLVLFGGGTKLTVLGQPKAAPSVTLFPPSSEELQANKATLVCLISDFYPGAVTVAWKADSSPVKAGVETTTPSKQSNNKYAASSYLSLTPEQWKSHKSYSCQVTHEGSTVEKTVAPTECS |
| 670 | – | 7.3 | 6.4 | 486 | binds | 27.6 | 1.5 | 538 | 770 | – | – | CTLA4_anti OX40L fusion protein 67B06 (Fc fusion, also called 67B06(1); 67B06 (1)) heavy: [sequence of about 120 residues not given]EPKSSDKTHTCPPCPAPPVAGPSVFLFPPKPKDTLMISRTPEVTCVVVDVSHEDPEVKFNWYVDGVEVHNAKTKPREEQYNSTYRVVSVLTVLHQDWLNGKEYKCAVSNKALPSSIEKTISKAKGQPREPQVYTLPPSREEMTKNQVSLTCLVKGFYPSDIAVEWESNGQPENNYKTTPPVLDSDGSFFLYSKLTVDKSRWQQGNVFSCSVMHEALHNHYTQKSLSLSPGAGGGGSGGGGSGGGGSQLQLQESGPGLVKPSETLSLTCSVSGGSISTSSYYWGWIRQPPGKGLEWSGSIYYSGSTYYRPSLQGRATISVDTSKNQFSLKLTSVTAADTAVYYCARHRGSYFFDIWGLGTLVTVSSASTKGPSVFPLAPSSKSTSGGTAALGCLVKDYFPEPVTVSWNSGALTSGVHTFPAVLQSSGLYSLSSVVTVPSSSLGTQTYICNVNHKPSNTKVDKRVEPKSC light: SYELTQPLSVSVALGQTARMTCGGSDIENKNVHWYQQKPGQAPVLVIHRDNNRPSGIPERFSGSNSGNTATLTISRAQAGDEADYYCQVRDSNIVVFGGGTKLTVLGQPKAAPSVTLFPPSSEELQANKATLVCLISDFYPGAVTVAWKADSSPVKAGVETTTPSKQSNNKYAASSYLSLTPEQWKSHKSYSCQVTHEGSTVEKTVAPTECS |
| 663 | – | – | – | 433 | – | – | – | 450 | 910 | no binding | no binding | CTLA4-Ig (Ref3_CTLA4Ig) (Fc fusion) not shown |
